Reference: PubChem BioAssay AID504845 (National Center for Advancing Translational Sciences (NCATS), 2011)
The whole screen tested about 390,000 compounds, of which about 150 (0.038%) were called active. The inconclusive results got no clear call from the source; some entries with a clear call stand among them for comparison. The call rests on the fitted dose curve; in most records, active means well fitted inhibition curve with a large enough effect; inconclusive means small, poorly fitted or top-dose-only effect; inactive means no such curve, though single readings can be large or run the other way. Where the call is inconclusive, the potency comes from a doubtful curve fit.

Target: Regulator of G-protein signaling 4 (Homo sapiens) (UniProt P49798)
UniProt P49798, sequence (P49798 whole entry, looked up): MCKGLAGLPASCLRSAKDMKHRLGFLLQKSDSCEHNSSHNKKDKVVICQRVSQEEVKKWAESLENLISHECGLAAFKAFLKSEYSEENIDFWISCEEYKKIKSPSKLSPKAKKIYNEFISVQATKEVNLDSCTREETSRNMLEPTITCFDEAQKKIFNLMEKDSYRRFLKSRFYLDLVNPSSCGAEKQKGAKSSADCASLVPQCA
Assay: Inhibitors of Regulator of G Protein Signaling (RGS) 4: qHTS; further: nearly all actives have a fitted effect of over 75% in size
Settings: Transcreener GDP fluorescence polarization, RGS4-accelerated GTP hydrolysis; series mostly up to 114 µM; activity change, negative = inhibition: at the top concentration
How it was run: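 MLSMR compounds (23 nl, pin-transferred) preincubated 10 min at room temperature with a 500nM (2x) first reagent, then RGS4 at 900nM (2x) plus Transcreener GDP mix added; fluorescence polarization (620/688 nm) read before and after 90 min at 30 °C.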
On the % scale 0 is the no-effect control and ±100 the full control effect; potency means the concentration at half of the fitted maximal effect; tags describe the fitted curve by direction and shape.

Q: `OC(COc1ccc(Cl)cc1)CN1CCC(Cc2ccccc2)CC1` (stereo not given) was tested. Which “activity change, negative = inhibition” value did it give?
A: Its value is inactive: 0.196%.

Q: Which “activity change, negative = inhibition” value does the source give for `CCN1CCN(Cc2ccc(NC(=O)c3cc(NC(=O)c4cc(C)on4)cc(OC)c3)cc2C(F)(F)F)CC1` here?
A: Its value is inactive: -16.1%.

Q: For `C=CCOc1ccccc1CN(C(=O)CCl)c1ccc2c(c1)OCO2`, which Potency is on record?
A: Its Potency is inconclusive: 39.8 µM [inhibitor, partial curve, poor fit].

Q: For `Brc1ccc(/C=N/N2CCN(C3c4ccccc4-c4ccccc43)CC2)s1`, which Potency is on record?
A: The Potency was inconclusive: 89.1 µM [inhibitor, single point].

Q: With `COc1ccc(/C=C/C(=O)Nc2ccccc2C(=O)NCC(c2ccc(OC)cc2)N(C)C)cc1` (stereo not given) as the compound, how does the “activity change, negative = inhibition” value read?
A: The value was inactive: -4.48%.

Q: How did the Potency turn out when `CCCCOc1ccc(/C=C/C(=O)OCC(=O)c2c(N)n(C)c(=O)n(C)c2=O)cc1OCC` was run?
A: Its Potency is inconclusive: 79.4 µM [inhibitor, partial curve, poor fit].

Q: For `O=C(/C=C1\C(=O)Nc2ccccc21)/C=C1\C(=O)Nc2ccccc21`, which Potency is on record?
A: The Potency was inconclusive: 28.2 µM [inhibitor, full curve, poor fit].

Q: `CC(C)n1ncc(C(N)=O)c1N` was tested. Which Potency did it give?
A: Its Potency is inconclusive: 79.4 µM [inhibitor, single point].

Q: With `Cc1ccc(Nc2nc(-c3c(C)nc4ncccn34)cs2)cc1` as the compound, how does the Potency read?
A: The Potency was inconclusive: 79.4 µM [inhibitor, partial curve, poor fit].

Q: With `COc1ccc(NC(=O)c2c(NCc3ccc(C)o3)sc3c2CCC(C)C3)c(OC)c1` (stereo not given) as the compound, how does the Potency read?
A: The Potency was inconclusive: 79.4 µM [inhibitor, partial curve, poor fit].

Q: How did the Potency turn out when `COc1ccccc1-c1cc(C(=O)Nc2sc3c(c2C#N)CCCC3)no1` was run?
A: Its Potency is inconclusive: 28.2 µM [inhibitor, full curve, poor fit].

Q: For `O=C(c1ccc2c(c1)OCO2)C1CCCN(Cc2cn[nH]c2-c2cccc(F)c2)C1` (stereo not given), which “activity change, negative = inhibition” value is on record?
A: The value was inactive: -27.8%.

Q: How did the Potency turn out when `COC(=O)COc1ccc2oc(=O)cc(-c3cc4ccccc4o3)c2c1` was run?
A: The Potency was inconclusive: 50.1 µM [inhibitor, partial curve, poor fit].

Q: With `O=C(Nc1cccc(C(F)(F)F)c1)c1scc2c1OCCO2` as the compound, how does the Potency read?
A: Its Potency is inconclusive: 50.1 µM [inhibitor, partial curve, poor fit].

Q: For `N#CC1=C2SCN(Cc3ccccc3)CN2C(=O)CC1c1cccs1` (stereo not given), which Potency is on record?
A: Its Potency is inconclusive: 44.7 µM [inhibitor, partial curve, poor fit].

Q: How did the Potency turn out when `COC(=O)C1=C(C)N(Cc2ccc(C)cc2)C(=O)/C1=C\c1ccc(O)c(OC)c1` was run?
A: Its Potency is inconclusive: 50.1 µM [inhibitor, partial curve, poor fit].

Q: How did the Potency turn out when `CCOc1ccccc1/C=C/c1onc(C)c1S(=O)(=O)N1CCC(C(=O)N(CC)CC)CC1` was run?
A: The Potency was “inactive”.

Q: With `CC(C)c1ccc(NC(=O)c2cc(S(=O)(=O)NCC3COc4ccccc4O3)ccc2F)cc1` (stereo not given) as the compound, how does the “activity change, negative = inhibition” value read?
A: Its value is inactive: -1.04%.

Q: How did the Potency turn out when `O=C(COC(=O)CN1CCSC1=O)Nc1ccc(F)cc1Cl` was run?
A: Its Potency is inconclusive: 100 µM [inhibitor, single point].

Q: Which Potency does the source give for `CCCCCC(=O)NC(Cc1ccc(OC)c([N+](=O)[O-])c1)C(=O)O` (stereo not given) here?
A: Its Potency is inconclusive: 50.1 µM [inhibitor, partial curve, poor fit].

Q: How did the Potency turn out when `CCOc1ccc(S(=O)(=O)Nc2ccc(C(=O)NCC(C)(C)N3CCOCC3)cc2)cc1` was run?
A: The Potency was inconclusive: 70.8 µM [inhibitor, single point].

Q: Which “activity change, negative = inhibition” value does the source give for `COc1ccc(-c2cnnn2-c2ccc(NC(=O)c3c(F)cccc3F)cc2)cc1` here?
A: The value was inactive: -15.4%.

Q: `CCc1nc2nc(C)cc(Nc3cccc(C(F)(F)F)c3)n2n1` was tested. Which Potency did it give?
A: Its Potency is inconclusive: 89.1 µM [inhibitor, single point].

Q: `O=c1c(Br)c(N2CCCC2)cnn1-c1ccccc1` was tested. Which “activity change, negative = inhibition” value did it give?
A: The value was inactive: -28.1%.

Q: How did the “activity change, negative = inhibition” value turn out when `Cc1ccc(CCSc2ccc(F)cc2)cn1` was run?
A: The value was inactive: -11.8%.

Q: With `COCCNC(=O)/C(C#N)=C/c1ccccc1Br` as the compound, how does the Potency read?
A: Its Potency is inconclusive: 20 µM [inhibitor, full curve, poor fit].

Q: For `Cc1[nH]c2ccccc2c1C(c1ccccn1)N1CCC(C(N)=O)CC1` (stereo not given), which Potency is on record?
A: The Potency was inconclusive: 100 µM [inhibitor, partial curve, poor fit].

Q: How did the Potency turn out when `COc1ccc(C(=O)c2cn(CC(=O)Nc3ccc4c(c3)OCCO4)c3ccc(OC)cc3c2=O)cc1` was run?
A: Its Potency is inconclusive: 79.4 µM [inhibitor, partial curve, poor fit].

Q: With `Cc1ccc(-c2nc(CS(=O)CC(=O)NCCN3CCCC3)c(C)o2)cc1` (stereo not given) as the compound, how does the “activity change, negative = inhibition” value read?
A: The value was inactive: 0.673%.

Q: How did the “activity change, negative = inhibition” value turn out when `COC(=O)CSc1nc(-c2cccs2)ccc1C#N` was run?
A: Its value is inactive: -6.24%.

Q: Which Potency does the source give for `COc1ccc(C(=O)/C=C/C(=O)N(CC(=O)NC2CCCCC2)Cc2cccs2)c(O)c1` here?
A: Its Potency is inconclusive: 79.4 µM [inhibitor, partial curve, poor fit].

Q: For `O=c1c2ccccc2nc2oc3ccccc3n12`, which Potency is on record?
A: Its Potency is inconclusive: 79.4 µM [inhibitor, single point].

Q: `Cc1cccc(C)c1Nc1sc(C(=O)c2ccccc2)c(N)c1C(=O)Nc1ccc(F)cc1` was tested. Which “activity change, negative = inhibition” value did it give?
A: Its value is inactive: 2.87%.

Q: Which Potency does the source give for `Nc1nc2c(s1)CCc1ccccc1-2` here?
A: The Potency was inconclusive: 39.8 µM [inhibitor, partial curve, poor fit].

Q: `NS(=O)(=O)c1ccc(NC(=O)CSc2nnc(NC3CC3)s2)cc1` was tested. Which “activity change, negative = inhibition” value did it give?
A: Its value is inactive: 13.1%.

Q: Which “activity change, negative = inhibition” value does the source give for `CC(C[N+](C)(C)C)OC(=O)C1(c2ccccc2)CCCC1` (stereo not given) here?
A: The value was inactive: -15%.

Q: `COc1cc(CNc2ccc(N3CCCC3)cc2)ccc1OCc1ccccc1` was tested. Which Potency did it give?
A: Its Potency is inconclusive: 50.1 µM [inhibitor, partial curve, poor fit].

Q: How did the Potency turn out when `CCC/C(=N/NC(=O)c1nnn(-c2nonc2N)c1CN1CCCCC1)c1ccccc1` was run?
A: The Potency was inconclusive: 79.4 µM [inhibitor, partial curve, poor fit].

Q: How did the Potency turn out when `CCOC(=O)c1sc(NC(=O)Nc2ccc(F)cc2)nc1C` was run?
A: The Potency was inconclusive: 89.1 µM [inhibitor, single point].

Q: Which “activity change, negative = inhibition” value does the source give for `COc1cccc(NC(=O)C(OC(=O)c2cnc(C)cn2)c2ccccc2)c1` (stereo not given) here?
A: Its value is inactive: -7.35%.

Q: With `Cn1nc(-c2ccc(C(=O)Nc3ccc(F)cc3)cc2)c2ccccc2c1=O` as the compound, how does the Potency read?
A: Its Potency is inconclusive: 20 µM [inhibitor, full curve, poor fit].

Q: For `CCc1ccccc1NC(=O)Nc1cccn(Cc2ccccc2F)c1=O`, which “activity change, negative = inhibition” value is on record?
A: Its value is inactive: -11.8%.

Q: Which Potency does the source give for `C#CCOc1ccc(/C=C2/C(=O)ON=C2C)cc1Cl` here?
A: Its Potency is inconclusive: 20 µM [inhibitor, full curve, poor fit].

Q: `O=C(Nc1nnc(-c2ccccc2)s1)C1CCCN(C(=O)c2ccoc2)C1` (stereo not given) was tested. Which Potency did it give?
A: Its Potency is inconclusive: 100 µM [inhibitor, single point].

Q: Which Potency does the source give for `O=C(/C=C/c1ccco1)Nc1cccc(-c2nc3ccccc3[nH]2)c1` here?
A: Its Potency is inconclusive: 89.1 µM [inhibitor, single point].

Q: How did the Potency turn out when `CCNc1sc(C(=O)c2cccs2)c(N)c1C#N` was run?
A: Its Potency is inconclusive: 56.2 µM [inhibitor, partial curve, poor fit].

Q: Which Potency does the source give for `Cc1ccc(-c2c(C(=O)N/N=C/c3c[nH]c4ccccc34)nnn2-c2nonc2N)cc1` here?
A: Its Potency is inconclusive: 70.8 µM [inhibitor, partial curve, poor fit].

Q: With `CC(C)(C)NC(=O)C(c1ccc(F)cc1)N(CCc1ccccc1)C(=O)c1ccn[nH]1` (stereo not given) as the compound, how does the Potency read?
A: The Potency was inconclusive: 28.2 µM [inhibitor, full curve, poor fit].

Q: How did the Potency turn out when `CN1CCN(CC(=O)c2cc(C(C)(C)C)c(O)c(C(C)(C)C)c2)CC1` was run?
A: The Potency was inconclusive: 39.8 µM [inhibitor, partial curve, poor fit].

Q: For `COc1cccc(N2CCN(c3ccc4nnc(CCC(=O)Nc5ccccc5OC)n4n3)CC2)c1`, which “activity change, negative = inhibition” value is on record?
A: The value was inactive: -12.9%.

Q: How did the Potency turn out when `O=C1CN(C(=O)/C=C/c2ccc(Cl)cc2Cl)CCN1` was run?
A: Its Potency is inconclusive: 89.1 µM [inhibitor, single point].

Q: How did the Potency turn out when `CCN(CC)C(=S)Sc1c(-c2ccccc2)c2cc(Cl)ccc2[nH]c1=O` was run?
A: The Potency was inconclusive: 28.2 µM [inhibitor, full curve, poor fit].

Q: Which “activity change, negative = inhibition” value does the source give for `CC(C)COc1ccc(C(=O)CCN2CCCCC2)cc1` here?
A: Its value is inactive: -109%.

Q: Which Potency does the source give for `CCS(=O)(=O)Nc1ccc(C2=NN(C(=S)Nc3ccccc3)C(c3ccco3)C2)cc1` (stereo not given) here?
A: Its Potency is inconclusive: 112 µM [inhibitor, partial curve, poor fit].

Q: With `Cc1ccc(Cl)cc1NC(=O)CSC(N)=O` as the compound, how does the Potency read?
A: The Potency was inconclusive: 31.6 µM [inhibitor, partial curve, poor fit].

Q: With `Cc1cc(OCC(=O)N(Cc2sccc2C)C2CCS(=O)(=O)C2)ccc1Cl` (stereo not given) as the compound, how does the “activity change, negative = inhibition” value read?
A: Its value is inactive: 8.88%.

Q: With `Cc1cc(=O)oc2c(CN3CC(C)OC(C)C3)c(O)c(Cl)cc12` (stereo not given) as the compound, how does the Potency read?
A: Its Potency is inconclusive: 89.1 µM [inhibitor, single point].

Q: Which Potency does the source give for `O=C(CCOc1ccccc1)NCc1ccccc1` here?
A: The Potency was inconclusive: 89.1 µM [inhibitor, single point].

Q: Which Potency does the source give for `Cc1nc(N(C)C)c2sc(=S)n(-c3ccccc3)c2n1` here?
A: Its Potency is inconclusive: 17.8 µM [inhibitor, full curve, poor fit].

Q: `COc1ccc(F)cc1S(=O)(=O)NCCc1sc2nc(-c3ccc(F)cc3)nn2c1C` was tested. Which “activity change, negative = inhibition” value did it give?
A: Its value is inactive: -47.9%.

Q: Which Potency does the source give for `COc1ccc(C(=O)O)cc1NC(=S)NC(=O)c1ccc(-c2ccc(Cl)cc2)o1` here?
A: The Potency was inconclusive: 28.2 µM [inhibitor, full curve, poor fit].

Q: `COC(=O)c1c(NC(=O)CN2CCC3(O)CCCCC3C2c2ccc(OC)cc2OC)sc(C)c1C` (stereo not given) was tested. Which Potency did it give?
A: The Potency was inconclusive: 50.1 µM [inhibitor, partial curve, poor fit].

Q: Which Potency does the source give for `COc1ccc(C)cc1NC(=O)C(NC(=O)c1cc(OC)c(OC)c(OC)c1)C(C)C` (stereo not given) here?
A: Its Potency is inconclusive: 44.7 µM [inhibitor, partial curve, poor fit].

Q: For `Cc1cc(C)nc(NS(=O)(=O)c2ccc(NC(=O)Cc3ccccc3)cc2)n1`, which Potency is on record?
A: Its Potency is inconclusive: 79.4 µM [inhibitor, partial curve, poor fit].

Q: Which Potency does the source give for `CCN1CCN(C(=S)c2ccc(Cl)cc2)CC1` here?
A: The Potency was inconclusive: 50.1 µM [inhibitor, partial curve, poor fit].
